The supplement of paper PMC10126150
Sequences with one replicate were seen in a single cluster, so their values are uncertain.

The sequences below were run on ATP (assay: switch fluorescence ratio, 500 uM ATP over buffer (Cy3 cluster intensity, sum of 5 cycles each) (fold (ratio)); higher = stronger signal-on switching upon ATP binding; sequences stand for … in TCGTCGGCAGCGTCAGATGTGTATAAGAGACAGTTTTTTTTTTTTTTTTTTTTTTTTT…TC). Conditions: aptamer strand: ATP DNA aptamer (quencher-CACCTGGGGGAGTATTGCGGAGGAAGG + anchor), 100 nM annealed; ATP concentration: 500 uM; one replicate.
Outline: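 Per cluster, summed Cy3 intensity from the target cycles was divided by that from the buffer cycles to give the fluorescence ratio, then averaged per switch-domain sequence. Clusters outside 100-1000 RFU were excluded. The Cy3-labelled switching-strand clusters, on a modified Illumina MiSeq flow-cell, were annealed to 100 nM quencher-labelled ATP aptamer and imaged in selection buffer, then after 15 min with 500 uM ATP at 22 °C, for five cycles with NaOH stripping and re-annealing between them.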
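Also: ATP exposure 15 min at 22 °C before imaging.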

Sequence	switch fluorescence ratio
CATTGTTGTG	1.01
CAATCAGTTA	1.02
TTCGTGGGAC	1.03
CTAAAAGAGT	1.04
GACTCAAGGT	1.07
ACGGGTTTCG	1.02
TGGACTAGTT	1.02
TCCAAGGTAG	1.05
CGCTGAGGGC	1
TTTTCGATGC	1.06
ATGTTGGGT	0.951
GCAAGGTATG	1.06
ATTGATACCG	1.01
AACGTGATCG	1
GGCAGGCTCG	1.03
GATCCTCAGC	1.2
TTAACCGAGA	0.986
AGCGGCGACG	0.93
GGGAGGGTCG	1.09
TAATGGGACT	1.03
AGGCGTTGCG	0.96
AGGCACAGGG	1.06
TAAATACAA	1.1

Sequence	switch fluorescence ratio
GAAATAGTT	0.973
ACTAGTTGTT	1.01
CTGAAGCGGG	1.08
TGGCGATTT	1.03
TAGATGTTAC	0.979
CTCCGCGCCT	5.31
CGACCCATTG	1.01
TTCCGGAAGC	2.94
CTTTTAGAC	0.889
CTGAGAGTAA	1.13
ATCGGGTACA	0.999
ATACAGGATT	1.03
ATATTTATGT	1.01
TTCCTCTGGG	1.13
TTAGGTGCCA	1.48
GTAGATGTCC	1.04
GCACAGCTTA	1.04
AAAGTCTTAA	1.01
CCGTGTTATC	1.29
GGTCGTTCA	0.989
GATAATCCCG	1.04
TTTGGGGCG	1
TAATTGATTT	0.989

Sequence	switch fluorescence ratio
GGCTGAAGGA	1
GACAAAGTCC	1.06
CATTCGGTAT	1.1
ACGCAGGGAT	1.1
ATCTGTAGTT	0.969
CTCGGTGGGT	0.996
CCTAGTTTTA	1.06
GGTCCAGGGA	0.852
GCAACTGCCG	0.968
GAAAGTGCTC	0.98
TGGTCCAAAG	0.94
CTCGAAGGCA	1.04
TTTTTCATAC	0.991
ACAAAGATTA	1.04
CGGTTCAACT	0.979
ACCCTTTTCT	1
TTATGACTGC	0.981
GCCCCTGTAC	1.88
GAGCAGCTTG	1.01
CAAGGATATC	0.997
CCAGACCTTG	0.991
GAAGTCGAGT	1.18
AGTGTGACC	0.988

Sequence	switch fluorescence ratio
AGATCCCACG	1.06
TACTCCTGTT	1.03
CTGCGTCTTG	1
TCAAGCAGGT	1.02
ATAGTAATC	1.07
CCTATCTCGC	1.22
CCGATCTAGC	1.96
AGTTGTCAGG	1.02
CGCTCGGACG	1.03
CGTCCAAGCC	1.31
CTCTGTAGAA	1.09
GAGAGGTATG	0.992
GTTGTATAAC	1.05
GCGACATCTA	1.01
AACATTGTTA	0.993
CTCGCTGATG	1.03
TTGTTCCAGG	1.28
GGACTCTTCA	1.04
AAGCCATTTG	0.994
TCTGATATAC	2.22
AGAATTCTAT	1.01
ACCCGACAGC	1.57
GACGCCGGG	1.04

Sequence	switch fluorescence ratio
TGAGCACTCT	1.49
ACCTAGGACC	1.13
GAGTCGCGGG	0.946
GCACGTCCGA	1.09
AGAAGAGGGT	0.98
GGATCGGGCA	1.04
AAGAAGTAAG	0.947
GACCATAGAC	1.05
AGACTGAGGG	0.994
GACAGCCCTT	1.03
TTGCCCGTGT	0.957
ACCTAGAAG	1.07
AGGCATTGAT	0.968
TTAGTCGTG	1.03
ACGGGCGCCA	1.04
CGAATATTTT	0.99
GACAACTAAA	0.984
ACGGGTAAGA	1.05
CGAATGTGTC	1.04
GTCTTAAAGA	0.993
AAGCAGCCAT	1
GCGTCTATCC	0.979
TCGCAATGTG	3.06

Sequence	switch fluorescence ratio
AAAGGGATGC	1.07
TTTGCACCCA	1.19
TAATGCGACT	1.04
GGTCATGAG	0.995
TCTTGCTCGC	1.29
TTAAGCTTGG	0.992
AACGGTGTGT	0.998
GTGGAGTAGA	1.04
TAAAATTATT	1.03
TGCAAATAGT	1.01
CCGGTCTTCA	1.02
AGGTGTCGGC	0.961
GGAAATGCCA	1.02
TGACATTACG	1.19
GCTGTAGTAC	1.27
CGAGTTTTTC	1.04
TTTCCATGAT	1.09
CACAGAACCG	1.14
GATTGAGCTC	1.07
TAAAAGAATT	1.02
CGTTAGAACA	1.01
GAATCCGGTC	1.06
ATGGTAGGAC	0.989

Sequence	switch fluorescence ratio
TAGAAAGGAT	0.943
TATCTCTCG	0.958
ATAAAAGCGA	1
TTTTTTCAC	1.02
CAATCATTGG	0.962
CATAGATATA	0.99
TGCTTGATTG	1.03
TATTTGTGCA	1.02
GGTGTTCCGG	1.04
GATGGCTCG	1.01
GGTTATTTAC	0.992
GCATTCAACA	0.988
GTAATTCCGG	0.995
CAGAAACCAG	1.04
AAAAGCAACT	1.04
GGCAGGGAAG	0.976
AGGTGGTTTA	0.986
TTACAGTAAA	1.06
TAAGGAATTT	1.08
